Laboratory results reported in PubChem BioAssay AID1347428 (National Center for Advancing Translational Sciences (NCATS), 2020).
The whole screen tested about 91,000 compounds, of which about 290 (0.32%) were called active. Inconclusive means that the source gave no clear call. Such entries were picked first, then a sample of the others. Calls follow the shape of the dose curve; as a rule, active = well fitted inhibition curve with a large enough effect; inconclusive = small, poorly fitted or top-dose-only effect; inactive = no such curve, though single readings can be large or run the other way. Potencies beside an inconclusive call are fits to weak or partial responses and may not hold up.

These compounds were tested against Single-stranded DNA cytosine deaminase (Homo sapiens) (UniProt Q9GZX7) (assay: Primary qHTS assay for inhibitors of Activation Induced Cytidine Deaminase (AID): AID signal). Conditions: AID deamination FRET fluorescence, UDG-coupled, 4 h; activity change, negative = inhibition: at 115 µM (top of the series).
% is scaled to controls: 0 for no effect and ±100 for the full control effect; potency is read from the fitted curve at half-maximal effect; tags tell the direction and shape of the fitted curve.
Also: nearly all actives have a fitted effect of over 25% in size.

UniProt Q9GZX7, sequence (Q9GZX7 whole entry, looked up): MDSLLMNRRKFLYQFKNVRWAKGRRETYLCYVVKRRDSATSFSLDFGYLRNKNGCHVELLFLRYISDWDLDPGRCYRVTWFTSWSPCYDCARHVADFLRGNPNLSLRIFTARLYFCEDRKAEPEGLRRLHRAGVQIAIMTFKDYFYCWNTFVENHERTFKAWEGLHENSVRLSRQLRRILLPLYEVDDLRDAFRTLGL

Row | Structure (SMILES) | Potency | activity change, negative = inhibition
1 | Cc1ccc(C(=O)NCC(c2cccs2)S(=O)(=O)c2ccccc2)cc1C (configuration not stated) | inconclusive: 28.2 µM [inhibitor, full curve, poor fit] | 
2 | CCOc1ccc(CCNC(=O)c2cc3sccc3n2CC)cc1OCC | inconclusive: 50.1 µM [inhibitor, partial curve, poor fit] | 
3 | Fc1ccc(CSc2nncn3c2cc2occc23)c(Cl)c1 | inconclusive: 35.5 µM [inhibitor, partial curve, poor fit] | 
4 | CCc1nc2ccc(C(=O)N3CCN(c4cc(C)ccc4C)CC3)cc2nc1CC | inconclusive: 22.4 µM [inhibitor, full curve, poor fit] | 
5 | c1ccc2c(NC34CC5CC(CC(C5)C3)C4)nc(N3CCCC3)nc2c1 | inconclusive: 50.1 µM [inhibitor, partial curve, poor fit] | 
6 | Cc1ccc(N(C)S(=O)(=O)c2ccc(-c3coc(C)n3)cc2)cc1 | inconclusive: 50.1 µM [inhibitor, partial curve, poor fit] | 
7 | CCCCCOc1ccccc1CN1C(=O)C(=O)c2cc(C)ccc21 | active: 28.2 µM | 
8 | Cc1cc(OC(C)C(=O)N2CCC(c3nc4ccccc4o3)CC2)ccc1Cl (configuration not stated) | inconclusive: 79.4 µM [inhibitor, partial curve, poor fit] | 
9 | O=C(Nc1ccc(Cl)c(C(F)(F)F)c1)c1nc2ccccc2nc1N1CCCCC1 | inconclusive: 39.8 µM [inhibitor, full curve] | 
10 | Cc1oc2cc(OCC(=O)NC(C)c3cccs3)ccc2c(=O)c1Oc1ccccc1 (configuration not stated) |  | inactive: -6.75%
11 | Cc1ccc(N2CCN(Cc3nnc(-c4ccccc4F)o3)CC2)c(C)c1 | inconclusive: 100 µM [inhibitor, single point] | 
12 | CCn1cc(C(=O)NCCN(CC(C)C)CC(C)C)c(=O)c2cc(S(=O)(=O)N(C)C3CCCCC3)ccc21 | inconclusive: 100 µM [inhibitor, single point] | 
13 | COc1cccc(NC(=O)Nc2ccc3snnc3c2)c1 | inconclusive: 79.4 µM [inhibitor, partial curve, poor fit] | 
14 | COc1ccc(-c2cc(C)no2)cc1S(=O)(=O)N1CCCC(C)C1 (configuration not stated) |  | inactive: -10.5%
15 | Cc1c(C(=O)NCc2cccc(F)c2)oc2c1-c1[nH]ncc1CC2 | inconclusive: 100 µM [inhibitor, single point] | 
16 | CCN1CCN(c2nc3c(S(=O)(=O)c4ccc(C)cc4)nnn3c3ccsc23)CC1 | inconclusive: 50.1 µM [inhibitor, partial curve, poor fit] | 
17 | Nc1nc(Nc2cccc(Cl)c2)sc1C(=O)c1ccc(F)cc1 | inactive | 
18 | CCn1cc(S(=O)(=O)c2ccc(OC)cc2)c(=O)c2cc(F)c(N3CCCCCC3)cc21 |  | inactive: -7.89%
19 | COc1cc(OC)c(NC(=O)CC(C)S(=O)(=O)c2ccc3c(c2)NC(=O)CO3)cc1Cl (configuration not stated) |  | inactive: -4.29%
20 | CCOc1cccc(CNC(=O)c2ccc(N3CCCC3)c(NC(=O)Nc3ccccc3CC)c2)c1 | inconclusive: 100 µM [inhibitor, single point] | 
21 | Cn1nc(-c2ccc(OCC(=O)N3CCOCC3)cc2)c2ccccc2c1=O |  | inactive: -4.55%

Row | Structure (SMILES) | Potency | activity change, negative = inhibition
22 | CC(C)c1ccccc1NC(=O)C(Cc1c[nH]c2ccccc12)NC(=O)OC(C)(C)C (configuration not stated) | inconclusive: 22.4 µM [inhibitor, full curve, poor fit] | 
23 | Cc1ccc(NC(=O)c2ccc3c(O)c(S(=O)(=O)c4ccc(Cl)cc4)c(=O)[nH]c3c2)cc1 | inconclusive: 56.2 µM [inhibitor, partial curve, poor fit] | 
24 | CCCCn1c(SCc2ccccc2C)nc2ccsc2c1=O | inconclusive: 44.7 µM [inhibitor, partial curve] | 
25 | Cc1c(C)c2ccc(OCC(=O)NCCN(C)C)c(C)c2oc1=O |  | inactive: -3.9%
26 | Cc1cccc(N2CCN(C(=O)Cn3c(C)c4cnn(-c5ccccc5)c(=O)c4c3C)CC2)c1C | inconclusive: 35.5 µM [inhibitor, partial curve] | 
27 | COc1ccc(/C=C(\C#N)c2nc3cc(C)c(C)cc3[nH]2)cc1Br | inconclusive: 89.1 µM [inhibitor, partial curve, poor fit] | 
28 | CC(C)Cn1c(-c2csnn2)nc2c1c(=O)[nH]c(=O)n2CC(C)C |  | inactive: -5.17%
29 | Cc1cccc(C(=O)NCCC(=O)NCC2CCCCC2)c1 |  | inactive: 11.4%
30 | CN(C(=O)Cn1nc(-c2ccc(Br)cc2)ccc1=O)C1CCCCC1 | inconclusive: 39.8 µM [inhibitor, partial curve, poor fit] | 
31 | COc1ccc(CCNC(=O)c2cc(Nc3ccccc3)nc3ccccc23)cc1OC | inconclusive: 35.5 µM [inhibitor, partial curve] | 
32 | Cc1ccccc1Cn1c(SCc2ccc(C(=O)N3CCCCC3)cc2)nc2ccncc21 | inconclusive: 2.82 µM [inhibitor, full curve, poor fit] | 
33 | COc1ccc(-n2nc3c(N4CCC(C(=O)NC5CCCCC5)CC4)nnc(C)c3c2C)cc1 | inconclusive: 89.1 µM [inhibitor, single point] | 
34 | Nc1c(-c2nc(-c3ccccc3Cl)no2)nnn1-c1ccccc1C(F)(F)F | inconclusive: 89.1 µM [inhibitor, single point] | 
35 | CCOC(=O)c1ccc(NC(=O)c2oc3c(c2C)-c2nn(Cc4ccccc4Cl)cc2CC3)cc1 | inconclusive: 89.1 µM [inhibitor, single point] | 
36 | CCCCOc1ccccc1C1CC(=O)Nc2cc(C)c(C)cc21 (configuration not stated) | inconclusive: 3.16 µM [inhibitor, full curve, poor fit] | 
37 | COC(=O)c1c(NC(=O)C2c3ccccc3Oc3ccccc32)sc2c1CCC(C(C)(C)C)C2 (configuration not stated) | inconclusive: 56.2 µM [inhibitor, partial curve, poor fit] | 
38 | Cc1nc2cc(-c3cccc(F)c3)nn2c(C)c1CCC(=O)NC(C)c1ccccc1 (configuration not stated) | inconclusive: 25.1 µM [inhibitor, full curve, poor fit] | 
39 | O=C(CSc1n[nH]c(-c2cc(Br)ccc2O)n1)N1CCCC1 |  | inactive: -4.53%
40 | O=C(CSc1nc2c([nH]c3ccccc32)c(=O)n1-c1ccccc1F)Nc1cccc(C(F)(F)F)c1 | inconclusive: 35.5 µM [inhibitor, full curve, poor fit] | 
41 | CS(=O)Cc1cccc(C(=O)Nc2nc(-c3ccccn3)cs2)c1 (configuration not stated) |  | inactive: 31.4%
42 | Cc1cc2oc(C(=O)N(Cc3ccc(N(C)C)cc3)Cc3ccco3)c(C)c2cc1Cl | inconclusive: 25.1 µM [inhibitor, full curve, poor fit] | 

Row | Structure (SMILES) | Potency | activity change, negative = inhibition
43 | O=C(CCCN1C(=O)c2cccnc2Oc2ccc(Cl)cc21)NCc1ccc(F)cc1 | inconclusive: 89.1 µM [inhibitor, single point] | 
44 | CCCCNC(=O)c1ccc2c(c1)N=C(CC)c1ccccc1S2 | inconclusive: 79.4 µM [inhibitor, partial curve, poor fit] | 
45 | Cc1ccccc1CN1C(=O)c2ccccc2Sc2ccc(C(=O)NCCc3ccccc3)cc21 | inconclusive: 2.82 µM [inhibitor, full curve, poor fit] | 
46 | CCn1cc(C(=O)N2CCN(c3cccc(Cl)c3)CC2)c(=O)c2cc(S(=O)(=O)N3CCC(C)CC3)ccc21 | inconclusive: 25.1 µM [inhibitor, partial curve, poor fit] | 
47 | Cc1cccc(C)c1OCC(=O)N(Cc1ccco1)Cc1ccco1 | inconclusive: 79.4 µM [inhibitor, partial curve, poor fit] | 
48 | O=C(NCCCN1CCN(c2cccc(Cl)c2)CC1)c1ccc2nc(Cc3ccccc3)oc2c1 | inconclusive: 20 µM [inhibitor, full curve, poor fit] | 
49 | Cc1nn2c(C)c(C(=O)N3CCN(c4ccc(Cl)cc4)CC3)cnc2c1-c1ccc(F)cc1 | inconclusive: 7.94 µM [inhibitor, full curve, poor fit] | 
50 | CCn1nc(C(=O)N2CCN(S(=O)(=O)c3ccc(C(C)(C)C)cc3)CC2)c2ccccc2c1=O | inconclusive: 56.2 µM [inhibitor, partial curve, poor fit] | 
51 | Clc1ccc(CCNC(c2ccc(Cl)cc2)c2nnc(-c3ccccc3)o2)cc1 (configuration not stated) | inconclusive: 17.8 µM [inhibitor, partial curve, poor fit] | 
52 | O=C(Nc1nc2c(F)cccc2s1)c1ccc(S(=O)(=O)N2CCCc3ccccc32)cc1 | inconclusive: 39.8 µM [inhibitor, single point] | 
53 | O=C(c1ccc(F)cc1)C1CCN(CCn2c(=O)[nH]c3ccccc3c2=O)CC1 |  | inactive: 6.47%
54 | CC(C)c1ccc(CNC(=O)c2ccc(N3CCCC3)c(NC(=O)NCc3ccccc3)c2)cc1 | inconclusive: 39.8 µM [inhibitor, partial curve, poor fit] | 
55 | CCc1ccccc1-n1cnc2cc(C(=O)NC3CCCCCC3)ccc21 | inconclusive: 31.6 µM [inhibitor, full curve, poor fit] | 
56 | CCc1ccc2occ(CC(=O)Nc3ccc(OC)c(Cl)c3)c2c1 | inconclusive: 89.1 µM [inhibitor, single point] | 
57 | NC(=O)c1[nH]ncc1NCc1cccnc1 |  | inactive: -5.12%
58 | COc1ccc(COCC(O)CSc2nncs2)cc1OC (configuration not stated) |  | inactive: -0.426%
59 | CCn1c(=O)cc(OCC(=O)Nc2cc(OC)c(OC)c(OC)c2)c2ccccc21 | inconclusive: 35.5 µM [inhibitor, partial curve, poor fit] | 
60 | Cc1ccc(C)c(N(C)C(=O)C2CCN(c3ncnc4c3nc3n4CCCCC3)CC2)c1 | active: 79.4 µM | 
61 | CCCCS(=O)(=O)CCSCCS(=O)(=O)CCCC |  | inactive: -5.18%
62 | Cc1ccc(Cn2c(=O)n(CC3CCC(C(=O)N4CCOCC4)CC3)c(=O)c3sccc32)cc1 (configuration not stated) | inconclusive: 79.4 µM [inhibitor, single point] | 
